# According to article PMC6919601, “Identification of Plasmodium dipeptidyl aminopeptidase allosteric inhibitors by high throughput screening” (PLoS ONE, 2019):
# Out of some 110,000 compounds screened, about 230 (0.21%) showed an effect of 50% or more. This is one part of the list.
# Target: DPAP1 (Plasmodium falciparum, UniProt Q8IIJ9)
# Assay: primary screen, percent inhibition; read by cleavage of a fluorogenic dipeptide substrate; higher = more effect of the substance
# Parameters: species or system P. falciparum D10 trophozoite lysates; single well
# 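Further: 30 min substrate incubation versus DMSO and 10 µM JCP410 controls.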
# Sequence of DPAP1 (Q8IIJ9 whole entry, looked up): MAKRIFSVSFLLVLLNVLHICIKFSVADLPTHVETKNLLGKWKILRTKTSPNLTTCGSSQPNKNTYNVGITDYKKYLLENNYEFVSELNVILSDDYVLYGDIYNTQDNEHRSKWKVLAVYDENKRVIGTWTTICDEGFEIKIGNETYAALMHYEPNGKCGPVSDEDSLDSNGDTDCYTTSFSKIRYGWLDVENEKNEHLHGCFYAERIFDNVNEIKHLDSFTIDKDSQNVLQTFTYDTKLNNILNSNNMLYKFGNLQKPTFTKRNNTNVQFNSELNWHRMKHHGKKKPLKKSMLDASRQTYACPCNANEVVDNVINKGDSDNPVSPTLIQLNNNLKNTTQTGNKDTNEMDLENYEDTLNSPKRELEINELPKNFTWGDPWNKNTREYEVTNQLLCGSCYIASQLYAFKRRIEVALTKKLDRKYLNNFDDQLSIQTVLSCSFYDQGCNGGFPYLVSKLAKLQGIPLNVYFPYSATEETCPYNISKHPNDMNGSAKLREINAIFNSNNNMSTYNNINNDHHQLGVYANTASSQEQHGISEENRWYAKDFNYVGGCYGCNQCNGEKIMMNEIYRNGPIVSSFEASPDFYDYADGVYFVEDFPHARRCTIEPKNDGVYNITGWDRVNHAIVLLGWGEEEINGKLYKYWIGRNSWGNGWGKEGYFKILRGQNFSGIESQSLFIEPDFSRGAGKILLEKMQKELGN
row,SMILES,% Inhibition @ 10 uM [%]
1,CC(C)CC(NC(=O)OCc1ccccc1)C(=O)NC(CCc1ccccc1)C(=O)c1cc2ccccc2o1 (stereo not shown),-3.97
2,O=C(CSc1nnc(-c2ccncc2)n1Cc1ccco1)c1c[nH]c2ccccc12,5.01
3,O=C(NCc1ccc(Cl)cc1Cl)C(=O)NC1CCCC1,1.57
4,Cc1ccc(C2C3=C(O)CCCC3=Nc3[nH]nc(-c4ccccc4)c32)cc1 (stereo not shown),-0.238
5,CCN1CCN(Cc2ccc(C(C)C)cc2)CC1,0.847
6,CSc1ccc(/C=C/C(=O)c2c(O)cc(C)oc2=O)cc1,-3.79
7,CCOc1ccc(N2C(=O)CC(N3CCSCC3)C2=O)cc1 (stereo not shown),-8.72
8,CCC(=O)c1c(OCC(N)=O)ccc2c(C)cc(=O)oc12,-0.958
9,Cc1ccc(C(=O)c2oc3ccccc3c2NC(=O)C2COc3ccccc3O2)cc1 (stereo not shown),-1.11
10,Cc1ccc(OCCCN2CCCCC2)cc1C,4.6
11,O=C(O)Cc1ccc(NC(=O)c2ccc3c(c2)C(=O)N(Cc2ccco2)C3=O)cc1,3.53
12,COc1cccc(-c2[nH]c3c(C#N)cnn3c2NC2CCCCCC2)c1,3.84
13,Cc1ccc(C)c(OCC(=O)Nc2ccc(S(=O)(=O)Nc3nccs3)cc2)c1,5.69
14,NC(=O)C1CCN(Cc2ccc(F)cc2)CC1,4.36
15,O=C(O)c1cccc(N2C(=O)C3C(C2=O)C2C=CC3C23CC3)c1 (stereo not shown),3.53
16,COc1cccc(CNC(=O)Cc2c(C)c3cc4c(C)coc4c(C)c3oc2=O)c1,0.895
17,CCOC(=O)c1ccc(Oc2nc(N3CCCCC3)nc(N3CCCCC3)n2)cc1,0.401
18,CCCOc1ccc(C2CC(=O)N3C(=C2C#N)SCC3(O)c2ccc(Cl)cc2)cc1OC (stereo not shown),-0.0235
19,COc1ccc(/C=C2/C(=N)N3C(=NC2=O)SN=C3S(C)(=O)=O)cc1OC,-1.58
20,COc1ccc2c(c1)N(C)C(=O)C2(c1ccccc1)c1ccccc1,8.19
21,CC(NC(=O)c1cnn2c(C(F)(F)F)cc(-c3cccs3)nc12)c1ccccc1 (stereo not shown),-2.26
22,CCS(=O)(=O)n1nc(-c2ccc(OC)cc2)nc1SCc1ccccc1,4.08
23,Cc1cccc(C(=O)N2N=C(c3ccncc3)CC2(O)C(F)(F)F)c1 (stereo not shown),2.06
24,O=S1(=O)N=C(N(CCO)c2ccc(Cl)cc2)c2ccccc21,1.68
25,NS(=O)(=O)c1ccc(NC(=O)C23CC4CC(CC(C4)C2)C3)cc1,9.77

row,SMILES,% Inhibition @ 10 uM [%]
1,O=S1(=O)N=C(Nc2ccc(Br)cc2)c2ccccc21,-2.42
2,Cc1ccc(S(=O)(=O)NCc2ccc(C(=O)NC3CCC(C)CC3)cc2)cc1 (stereo not shown),-3.35
3,COc1ccc(CC(=O)Nc2ccc(Cl)cc2)cc1,1.27
4,COc1ccccc1N1C(=O)c2ccccc2C1=O,-3.98
5,COc1ccccc1CN1CCN(Cc2ccc(Cl)cc2)CC1,-2.32
6,Cc1ccc(Nc2nc(-c3ccc(-c4ccccc4)cc3)cs2)cc1Cl,-4.31
7,Cc1nc2ncnn2c(C)c1CCC(=O)NC(C)c1ccccc1 (stereo not shown),-0.465
8,N#Cc1nc(COc2ccccc2)oc1NCCc1ccccc1,1.43
9,Cc1onc(-c2c(Cl)cccc2Cl)c1C(=O)NC(C)(C)C,-4.74
10,COc1ccc(NC(=O)CN(c2ccccc2)S(=O)(=O)c2ccc(OC)cc2)cc1,2.08
11,COc1ccc(C)cc1N(CC(=O)Nc1ccc(S(=O)(=O)N2CCCCC2)cc1)S(C)(=O)=O,3.84
12,COc1ccc(CC2(C)OC(c3cccs3)=NN2C(C)=O)cc1 (stereo not shown),-2.65
13,COc1cc(C2c3c(-c4cc(C)ccc4O)n[nH]c3C(=O)N2CCCOC(C)C)ccc1O (stereo not shown),3.81
14,Cc1ccc(N2C(=O)C3C4CCC(O4)C3C2=O)nc1 (stereo not shown),-2.77
15,CN(C)CCn1c(=O)n(C)c(=O)c2[nH]cnc21,-4.82
16,Cc1ccc(NC(=O)c2ccncc2)c(Br)c1,-0.48
17,O=C(NCC1CCCO1)c1ccc(COc2cccc3ccccc23)cc1 (stereo not shown),-5.57
18,CC1(C)CC(=O)C2=C(C1)N(c1ccccc1)C(=O)CC2c1ccc(O)cc1 (stereo not shown),5.16
19,CC(=O)N(Cc1c(C(=O)O)oc2cccc(O)c12)C(C)C,0.266
20,O=C(CNC(=S)N1CC2CC(C1)c1cccc(=O)n1C2)NCc1c(F)cc(F)cc1F (stereo not shown),-0.519
21,CCCCn1c(=O)[nH]c2nc3cc(N)ccc3nc2c1=O,4.15
22,O=C(O)C1CC=CCC1C(=O)Nc1ccc2c(c1)OCCO2 (stereo not shown),-2.09
23,c1ccc2c3c([nH]c2c1)-c1nonc1CC3,-0.294
24,CC(C)CCn1c(CO)nc2ccccc21,-6.36
25,COc1ccc(C2=N/C(=C\c3cccc4ccccc34)C(=O)O2)cc1OC,2.09

row,SMILES,% Inhibition @ 10 uM [%]
1,COc1cccc(S(=O)(=O)c2c(C)cc(C)cc2C)c1,-2.51
2,Cc1ccc(CN2C(=O)N/C(=C/c3ccc(OC(C)C)cc3)C2=O)cc1,3.29
3,CCOc1ccc(Br)cc1C(=O)NCCc1c[nH]c2ccccc12,-3.64
4,CCCCn1c(C(C)NC(=O)c2cc(OC)c(OC)c(OC)c2)nc2ccccc21 (stereo not shown),9.77
5,Cc1cccc(NC(=O)c2cnn(-c3ccccc3)c2C)c1C,-0.884
6,COCCCNC(=O)c1oc2ccc(S(=O)(=O)N(C)C3CCCCC3)cc2c1C,12.1
7,CCOC(=O)c1c(NC(=O)C(C)SC2=NN3CCCC(=O)N=C3S2)sc2c1CCCC2 (stereo not shown),9.34
8,O=C(c1nsnc1-c1ccccc1O)N1CCCC1,-1.07
9,Cc1ccc(Cn2c(=O)c3ccccc3n3c(-c4ccccc4F)nnc23)cc1,3.3
10,CCOc1ccc(C(=O)Nc2ccc(CN3CCOCC3)cc2)cc1Cl,1.78
11,COCCCNC(=O)CN1C(=O)c2ccccc2Sc2ncccc21,-0.397
12,CCOC(=O)C1=C(CN2CCC(c3ccc(C)cc3)C2)NC(=O)NC1c1ccc(Cl)cc1 (stereo not shown),-2.83
13,COc1cc(C2NC(C(=O)O)CS2)ccc1OCc1ccc(C)cc1 (stereo not shown),-2.92
14,O=C(Nc1ccccc1)c1cccc(N2C(=O)C3CC=CCC3C2=O)c1 (stereo not shown),-0.231
15,CCCCCn1cc2c(c1-c1ccc(OC)cc1)c(=O)n(C)c(=O)n2C,3.62
16,CCN(CC)CC#CCC(O)(c1ccccc1)c1ccccc1,-2.15
17,CCOc1ccccc1N1CCN(Cc2ccccc2C)CC1,-3.56
18,CCn1c(/N=C/c2ccc(OCCC(C)C)cc2)nc2ccccc21,3.04
19,COc1cc(C2NC(=O)NC(C)=C2C(=O)OCCc2ccccc2)ccc1O (stereo not shown),-1.03
20,Cc1ccc(SCC(=O)Nc2ccccc2)cc1,-0.864
21,COC(=O)Nc1ccccc1C(=O)NCc1ccc(Cl)cc1,-0.519
22,CCN(CCO)C(=O)c1cc(C(C)(C)C)cc(C(C)(C)C)c1,-10
23,CC(NC(=O)Nc1ccc(Cl)c(Cl)c1)c1ccccc1 (stereo not shown),4.34
24,CCOc1cccc2cc(-c3nc(-c4cccs4)no3)c(=O)oc12,9.63
25,CCn1cc(C(=O)NC2CCCC(C)C2C)c2cc(OC)c(OC)cc2c1=O (stereo not shown),-0.972

row,SMILES,% Inhibition @ 10 uM [%]
1,CCOC(=O)c1cc(-c2ccc(F)cc2)n(CC(=O)Nc2cc(C)ccn2)c1C,-7.35
2,O=C(CN1C(=O)c2ccccc2S1(=O)=O)Nc1ccc(F)cc1F,-0.469
3,NC1=NC(c2cccnc2)n2c(nc3ccccc32)N1 (stereo not shown),5.3
4,OCCOCCN1CCN(CC2CC3C=CC2C3)CC1 (stereo not shown),0.472
5,COc1ccccc1N1C(=O)NC(=O)/C(=C\c2ccc(O)cc2)C1=O,-4.23
6,O=C(NCc1ccco1)c1cc2c(Cl)nc3ccccc3c2s1,3.6
7,C1=C(CCNc2ncnc3c2nc2n3CCCCC2)CCCC1,1
8,Cc1nc2nc(SCc3cc(=O)n4c(C)cccc4n3)nn2c(C)c1Cc1ccccc1,-0.519
9,CN(Cc1ccccc1)S(=O)(=O)c1ccc(NC(=O)C2CC2)cc1,-1.04
10,N#CC1=C(N)Oc2c(ccc3ccccc23)C1c1ccc([N+](=O)[O-])cc1 (stereo not shown),-6.18
11,CC(=O)NC(=O)/C(C#N)=C/Nc1ccc2ccccc2c1,-2.87
12,O=c1c(-c2nc3ccccc3s2)c(C(F)(F)F)oc2cc(O)ccc12,-0.597
13,CC(C)C[C@H](NC(=O)c1ccc2c(c1)Cc1ccccc1-2)C(=O)NCC#N,4.33
14,COc1ccc(NC(=O)CN(Cc2ccccc2)S(C)(=O)=O)cc1,-1.52
15,CC1CCCC(NC(=O)C2CCN(c3nc4ccccc4n4cccc34)CC2)C1C (stereo not shown),-6.66
16,CCN(CC)c1nnc(-n2cccc2CN2CCN(c3ccccn3)CC2)s1,-4.99
17,COc1ccc(N(CC(=O)N2CCc3ccccc3C2)S(=O)(=O)c2ccc(C)cc2)cc1,1.96
18,CC(C)CC(C)(C)CNC(=O)N[C@@H](CC1CCCCC1)C(=O)NCC#N,-1.83
19,N=C1/C(=C\c2ccc(SC3CCCCC3)o2)C(=O)N=C2SC=NN12,2.14
20,Clc1cccc(N2CCN(CC3CC4C=CC3C4)CC2)c1 (stereo not shown),0.472
21,CC(C)CNC(=O)c1cc(-c2ccco2)on1,-8.56
22,COC(=O)c1ccc(OCC(O)CN(CCO)CCO)cc1 (stereo not shown),1.31
23,Cc1ccc(NC2=C(Cl)C(=O)N(Cc3ccccc3)C2=O)c(C)c1,-0.661
24,Cc1cccc2c1-c1sc(C(=O)N(C)Cc3ccco3)cc1CO2,-4.85
25,CC(C)C[C@H](NC(=O)c1ccc(OCc2cccnc2)cc1)C(=O)NCC#N,7.72
